Experimental data published in PMC5476798.
These are yes or no findings as the source states them, for the method shown. Binding seen in cells or lysates may run through a third protein. Some binding calls cover weakened binding; strength is not graded here. For some of these results: Tags and fused reporters may be left off the sequences shown.

Columns and labels:
[1] = biological target: T1, _(ProtA)Sam50 (S. cerevisiae) (UniProt P53969); test: pull-down; whole-cell extracts of ProtA-Sam50 cells expressing wild-type or mutant mdm10 forms, 1% digitonin; IgG-Sepharose, elution with TEV protease; eluate on blue native electrophoresis, immunodetection with anti-Mdm10 (Fig. 2b, upper panel)
T1 sequence: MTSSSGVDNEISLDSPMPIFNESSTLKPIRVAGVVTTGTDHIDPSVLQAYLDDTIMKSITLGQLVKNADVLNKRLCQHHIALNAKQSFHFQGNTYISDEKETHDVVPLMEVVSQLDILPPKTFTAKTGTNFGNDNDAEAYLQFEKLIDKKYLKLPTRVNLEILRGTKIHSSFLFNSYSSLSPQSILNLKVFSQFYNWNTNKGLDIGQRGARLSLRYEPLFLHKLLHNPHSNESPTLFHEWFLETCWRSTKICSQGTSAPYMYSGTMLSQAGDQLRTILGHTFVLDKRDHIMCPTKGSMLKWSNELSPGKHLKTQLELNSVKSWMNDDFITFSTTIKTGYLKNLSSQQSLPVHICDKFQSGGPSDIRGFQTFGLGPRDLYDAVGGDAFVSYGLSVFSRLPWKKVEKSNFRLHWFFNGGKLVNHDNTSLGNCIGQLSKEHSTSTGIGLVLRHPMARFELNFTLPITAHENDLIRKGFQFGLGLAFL

[2] = biological target: T1, _(ProtA)Sam50 (S. cerevisiae); test: pull-down; whole-cell extracts of ProtA-Sam50 cells expressing wild-type or mutant mdm10 forms, 1% digitonin; IgG-Sepharose, elution with TEV protease; SDS-PAGE and immunodetection (Fig. 2a)
[3] = biological target: T2, GST-Tom22ΔN (S. cerevisiae) (UniProt P49334); test: pull-down; GST-Tom22ΔN on Glutathione Sepharose 4b; mitochondria lysed in GST buffer (20 mM HEPES-KOH, pH 7.5, 10 mM Mg-acetate, 100 mM K-acetate, 10% glycerol) with 1% digitonin, 4 °C; elution by thrombin (Supplementary Fig. 3b); only the target purified
T2 sequence: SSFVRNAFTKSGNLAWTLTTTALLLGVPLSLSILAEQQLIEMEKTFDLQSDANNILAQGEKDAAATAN

[4] = biological target: T3, Tom7HA (S. cerevisiae) (UniProt P53507); test: co-IP; mitochondria with HA-tagged small Tom proteins lysed with 1% digitonin; anti-HA affinity matrix, 1 h at 4 °C; elution with SDS sample buffer, immunodetection (Fig. 4d)
T3 sequence: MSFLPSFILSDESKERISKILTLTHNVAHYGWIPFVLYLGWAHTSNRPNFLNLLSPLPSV

Measured: binding

B1: Mdm10 (mitochondrial distribution and morphology protein Mdm10), wild type (protein, UniProt P18409 1-493)
chain: MLPYMDQVLRAFYQSTHWSTQNSYEDITATSRTLLDFRIPSAIHLQISNKSTPNTFNSLDFSTRSRINGSLSYLYSDAQQLEKFMRNSTDIPLQDATETYRQLQPNLNFSVSSANTLSSDNTTVDNDKKLLHDSKFVKKSLYYGRMYYPSSDLEAMIIKRLSPQTQFMLKGVSSFKESLNVLTCYFQRDSHRNLQEWIFSTSDLLCGYRVLHNFLTTPSKFNTSLYNNSSLSLGAEFWLGLVSLSPGCSTTLRYYTHSTNTGRPLTLTLSWNPLFGHISSTYSAKTGTNSTFCAKYDFNLYSIESNLSFGCEFWQKKHHLLETNKNNNDKLEPISDELVDINPNSRATKLLHENVPDLNSAVNDIPSTLDIPVHKQKLLNDLTYAFSSSLRKIDEERSTIEKFDNKINSSIFTSVWKLSTSLRDKTLKLLWEGKWRGFLISAGTELVFTRGFQESLSDDEKNDNAISISATDTENGNIPVFPAKFGIQFQYST
binds: all assays above
